EC50 data for 1 molecule are collected here from patent US20250304706A1 (Astellas, published 2025).

The target of the experiment is T1, CD3εδ complex protein (human; alpaca, UniProt P07766 23-126; P04234 22-105).
T1 construct: they are not part of the secreted protein; also called human CD3; CD386 complex protein
The experiment is described as follows: ELISA, CD3 complex immobilized; average of several plates. As for the experimental part:
Binding activities of the anti-TSPAN8/anti-CD3 bispecific antibodies BTE-0001 to BTE-0067 to CD3 were evaluated by the ELISA. ELISA was performed according to a conventional method. The […] complex protein obtained in Example 1-3 was immobilized on a plate. BTE-0001 to BTE-0067 were used as the test antibodies. As a secondary antibody, Goat anti-Human IgG Fc, Multi-Species SP ads-HRP (2014-05, available from SouthernBiotech) was used. TMB+Substrate-Chromogen (S1599, available from Dako) was used as the detection reagent. Infinite M200pro (available from Tecan) was used to measure the absorbance. The EC50 values were calculated using variable slope model (four parameters) in GraphPad Prism with the maximum value in the same plate fixed at the top and the minimum value in the blank in the same plate fixed at the bottom. Since BTE-0001 was always measured in each plate as a control, only the EC50 value of BTE-0001 was expressed as the average value of a plurality of plates.
(In general: An ELISA detects its analyte on a solid surface through an enzyme-linked reagent.)

Sequence of UniProt P07766 (P07766 23-126 limits assumed, stated change not applied, form in doubt, chain 1 of 2): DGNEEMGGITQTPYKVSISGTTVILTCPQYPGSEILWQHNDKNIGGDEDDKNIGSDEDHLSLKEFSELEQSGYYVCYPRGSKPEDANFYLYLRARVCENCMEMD
Sequence of UniProt P07766 (P04234 22-105 limits assumed, stated change not applied, form in doubt, chain 2 of 2, further chain): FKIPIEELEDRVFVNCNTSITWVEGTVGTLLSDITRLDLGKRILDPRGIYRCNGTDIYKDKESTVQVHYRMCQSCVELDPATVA

B1: BTE-0001 (bispecific antibody, human IgG1, kappa, L234A L235A, N297G)
heavy: QVQLVESGGGVVQPGGSLRLSCAASGFTFSSYGMHWVRQAPGKGLEWVAVIWYDGRNKYYADSVKGRFTISRDNSKNTLYLQMNSLRAEDTAVYYCTRDHSGSGSYYIDYWGQGTLVTVSSASTKGPSVFPLAPSSKSTSGGTAALGCLVKDYFPEPVTVSWNSGALTSGVHTFPAVLQSSGLYSLSSVVTVPSSSLGTQTYICNVNHKPSNTKVDKKVEPKSCDKTHTCPPCPAPEAAGGPSVFLFPPKPKDTLMISRTPEVTCVVVDVSHEDPEVKFNWYVDGVEVHNAKTKPREEQYGSTYRVVSVLTVLHQDWLNGKEYKCKVSNKALPAPIEKTISKAKGQPREPQVYTLPPSRDELTKNQVSLSCAVKGFYPSDIAVEWESNGQPENNYKTTPPVLDSDGSFFLVSKLTVDKSRWQQGNVFSCSVMHEALHNHYTQKSLSLSPGK
light: EIAMTQSPATLSVSPGERATLSCRASQSVSSNLAWYQQKPGQAPRLLIYGASTRATGLPARFSGSGSGTEFTLTISSLQSEDFAVYYCQQYNNFWTFGQGTKVEIKRTVAAPSVFIFPPSDEQLKSGTASVVCLLNNFYPREAKVQWKVDNALQSGNSQESVTEQDSKDSTYSLSSTLTLSKADYEKHKVYACEVTHQGLSSPVTKSFNRGEC
scFv: EVQLVESGGGLIQPGGSLRLSCAASGFTFNTYAMNWVRQAPGKGLEWVARIRSKYNNYATYYADSVKDRFTISRDDSKSTLYLQMNNLRAEDTAVYYCVRHGNFGNSYVSWFAYWGQGTLVTVSSGKPGSGKPGSGKPGSGKPGSQAVVTQEPSLTVSPGGTVTLTCRSSTGAVTTSNYANWVQQKPGQAPRGLIGGTNKRAPGTPARFSGSLLGDKAALTLSGAQPEDEAEYYCALWYSNLWVFGGGTKVTVL[human IgG1 Fc with C220S L234A L235A N297G T366W (EU numbers) cut from this listing]
notes: anti-TSPAN8 heavy chain (Fab-Fc) + light chain + anti-CD3 scFv-Fc; vectors ApiD00067, ApiD00068, ApiD00000; also called anti-TSPAN8/anti-CD3 bispecific antibody containing anti-CD3 scFv before modification
In general, EC50 refers to the midpoint of the concentration-response curve. On to B1, for which the EC50 was 6.52 ng/mL.
